Assay results as given in PubChem BioAssay AID1347073 (National Center for Advancing Translational Sciences (NCATS), 2019).
The whole screen tested about 45,000 compounds, of which about 200 (0.44%) were called active. Another 7% or so got no clear call; they are omitted. Calls come from the whole dose curve; as a rule, active = well fitted activation curve with a large enough effect; inconclusive = small, poorly fitted or top-dose-only effect; inactive = no such curve, though single readings can be large or run the other way. Some of the results follow.

Assay: qHTS of TDP-43 Inhibitors: NCGC Sytravon Library Screen; note: nearly all actives have a fitted effect of over 55% in size; for growth rescue (activation): 0% is about no effect
Settings: yeast TDP-43 toxicity rescue, BacTiter-Glo growth, 24 h; series mostly up to 46.1 µM; growth rescue (activation): at the top concentration
How it was run: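 TDP-43-expressing yeast, pregrown in raffinose, seeded at OD600 0.02 in galactose medium with compound for 24 hr at 30 deg C. Growth read by BacTiter-Glo luminescence, so rescue of toxicity appears as activation.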
Potency is the fitted concentration of half-maximal effect.

| Structure (SMILES) | growth rescue (activation) | Potency |
| --- | --- | --- |
| Cc1ccc(CNC(=O)c2sc3nc[nH]c(=O)c3c2C)cc1 | inactive: 2.43% | – |
| Cc1ccc(NC(=O)CN2C(=O)C3CC=CCC3C2=O)cc1S(=O)(=O)N1CCOCC1 (centres undefined) | inactive: 12.9% | – |
| CC(=O)Nc1nnc(SCC(=O)N2CCc3ccccc32)s1 | inactive: 8.55% | – |
| O=C(CN1c2cccc3cccc(c23)S1(=O)=O)NCc1ccc(F)cc1 | inactive: -25.5% | – |
| Cc1ccc(-c2ccc(S(=O)(=O)NCC3CCCO3)cc2)cc1 (centres undefined) | inactive: 18.9% | – |
| Cc1ccc(-c2nc(CN(Cc3cnn(C)c3)C(C)C)c(C)o2)o1 | inactive: 2.52% | – |
| Cc1c(-c2csc(N)n2)c2ccccc2n1C | inactive: -21.3% | – |
| COc1ccc(NC(=O)C(C)N2C(=O)c3ccccc3C2=O)cc1S(=O)(=O)N1CCOCC1 (centres undefined) | inactive: 17% | – |
| COc1ccc2cc(C(=O)/C=C/c3cc(OC)c(OC)c(OC)c3)ccc2c1 | inactive: 14.3% | – |
| CC(C)NS(=O)(=O)c1ccc(CCC(=O)NCc2ccncc2)cc1 | inactive: 0.479% | – |
| Cc1ccc(CNC(=O)Nc2nnc([C@H]3C[C@H](O)[C@@H](CO)O3)s2)cc1 | inactive: 4.66% | – |
| CN(C)S(=O)(=O)N(CC(=O)NCCSCc1ccccc1)c1ccccc1 | inactive: 12.4% | – |
| CCN(CC)C(=O)c1cc(-c2ccc3c(c2)OCO3)on1 | inactive: 6.3% | – |
| CC1(C(=O)O)CCCN1C(=O)c1ccco1 (centres undefined) | inactive: 3.02% | – |
| CC(=O)c1c(C)[nH]c(C(=O)CSc2nnc(-c3ccccc3)o2)c1C | inactive: 9.21% | – |
| CC(CC(=O)Nc1ccc(C(N)=O)cc1)c1ccccc1 (centres undefined) | inactive: -1.47% | – |
| CC(C)c1nc(SCC(=O)Nc2c[nH]c(=O)[nH]c2=O)c2cnn(-c3ccccc3)c2n1 | inactive: 6.47% | – |
| O=C(O)c1ccc(-n2nncc2-c2ccccc2)cc1 | inactive: -7.43% | – |
| CC(C)(C)c1cc(N)n2nc(C(C)(C)C)cc2n1 | inactive: 6.28% | – |
| COc1ccc(OCC(=O)N2CC3(C)CC2CC(C)(C)C3)cc1 (centres undefined) | inactive: 0.003% | – |
| Oc1nc(Nc2ccc(F)cc2)sc1/C=C1\C=Nc2ccccc21 | inactive: 3.09% | – |
| Cc1cc(=O)n2[nH]c(SCc3ccccc3Cl)nc2n1 | inactive: -1.83% | – |
| O=[N+]([O-])c1ccc(NCCNS(=O)(=O)c2ccccc2)cc1 | inactive: -0.362% | – |

| Structure (SMILES) | growth rescue (activation) | Potency |
| --- | --- | --- |
| COc1cccc(CC(=O)Nc2ccc3c(c2)c(=O)n(C)n3-c2ccc(C(C)(C)C)cc2)c1 | inactive: 6.21% | – |
| O=C(c1ccc(N2C(=O)C3C4c5ccccc5C(c5ccccc54)C3C2=O)cc1)N1CCOCC1 (centres undefined) | inactive: 0.39% | – |
| FC(F)(F)c1ccc(N=Cc2sc(N3CCOCC3)nc2-c2ccccc2)cc1 | inactive: 6.38% | – |
| Cc1cc2oc(=O)sc2cc1NS(=O)(=O)c1ccccc1 | inactive: 35.7% | – |
| CCC(C)N1C(=O)CCC1C(=O)NCCc1ccc(Cl)cc1 (centres undefined) | inactive: 3.68% | – |
| Cc1cccc(C(=O)Nc2ccc(NC(=O)CN3CCOCC3)cc2)c1 | inactive: -7.08% | – |
| CC1=C(C(=O)Nc2ccc(C(=O)NCCC(C)C)cc2)SCCO1 | inactive: 12.7% | – |
| CC(=O)c1cn(N(C)c2ncc(C(F)(F)F)cc2Cl)c(=O)[nH]c1=O | inactive: -19.6% | – |
| Cc1cc(NC(=O)Nc2ccccc2F)ccc1Br | inactive: -6.3% | – |
| CC(=O)Nc1cccc(C(=O)N2CCN(S(=O)(=O)Cc3ccccc3)CC2)c1 | inactive: -3.84% | – |
| COc1ccc(N2C3=C(C(=O)CC(C)(C)C3)C(c3cnn(C)c3)C3=C2CC(C)(C)CC3=O)cc1 | inactive: -4.35% | – |
| CCN(c1ccccc1)S(=O)(=O)c1cc(C(=O)Nc2ccc(F)c(F)c2)ccc1F | inactive: 4.63% | – |
| CCCN(CCC)CC(=O)Nc1cccc2c1OCO2 | inactive: -15.1% | – |
| O=C(CSc1nnc(-c2ccccn2)o1)Nc1ccccc1C(F)(F)F | inactive: 13.8% | – |
| Cc1cc(N(C)/N=C/c2ccccc2O)nc(-c2ccccc2O)n1 | inactive: 8.91% | – |
| CCC1Oc2ccccc2N(CC(=O)NC2CCCC2)C1=O (centres undefined) | inactive: -2.7% | – |
| O=C(O)CCN1C(=O)/C(=C2\C(=O)N(Cc3ccc(F)cc3)c3ccccc32)SC1=S | inactive: 1.97% | – |
| Nc1cc(N)nc(SCC(=O)c2ccc3c(c2)NC(=O)CO3)n1 | inactive: -13.1% | – |
| O=C(/C=C\c1ccc2c(c1)OCO2)CC1(O)C(=O)Nc2ccccc21 (centres undefined) | inactive: 25.6% | – |
| Cc1ccc(C(=O)N2c3ccc(C)cc3C(C)(c3ccccc3)CC2(C)C)cc1 (centres undefined) | inactive: 1.59% | – |
| C=CCN(c1cccc(C(F)(F)F)c1)S(=O)(=O)c1cccc(C(=O)OCC(=O)NC)c1 | inactive: 10.2% | – |
| NC(N)=NN=C1c2ccccc2-c2ccccc21 | inactive: 9.88% | – |
| Cc1cccc(N)c1SC1CCCCC1O (centres undefined) | inactive: 21.5% | – |

| Structure (SMILES) | growth rescue (activation) | Potency |
| --- | --- | --- |
| CCc1ccc(NC(=O)CS(=O)CC(=O)Nc2ccc(-n3cnnn3)c(C)c2)cc1 (centres undefined) | inactive: 7.91% | – |
| COc1ccccc1N1CCN(C(=O)c2ccc3[nH]c4c(c3c2)CCCC4)CC1 | – | active: 17.8 µM |
| O=c1nccc(N/N=C/c2ccccc2O)[nH]1 | inactive: 5.36% | – |
| COc1ccc(NC(=O)C23CCC(C)(C(=O)C2)C3(C)C)cc1 (centres undefined) | inactive: 13.2% | – |
| Cc1ccc(C)c(NC(=O)c2ccc3nccnc3c2)c1 | inactive: -4.87% | – |
| COc1ccc(NC(=O)CCNS(=O)(=O)c2ccccc2F)cc1S(N)(=O)=O | inactive: 3.59% | – |
| CCCCCCCCCCS(=O)(=O)N/N=C/c1ccccc1OC | inactive: 3.39% | – |
| CC1CCCCC1NC(=O)COc1ccc(C#N)cc1 (centres undefined) | inactive: 11.6% | – |
| N#Cc1cn(Cc2ccccc2)c(=O)[nH]c1=O | inactive: -28.3% | – |
| O=C(Cn1cc(C(F)(F)F)cc(Cl)c1=O)NCc1ccc(Cl)cc1Cl | inactive: 5.38% | – |
| Cc1cccc(N2CN(S(=O)(=O)c3cccc([N+](=O)[O-])c3)c3nc4ccccc4nc32)c1 | inactive: 0.222% | – |
| CCCC(=O)NC(c1ccc2c(c1)OCO2)c1cc(Cl)c2cccnc2c1O (centres undefined) | inactive: 6.9% | – |
| NC(c1ccccc1)c1csc(NC(=O)Nc2cccc(C(F)(F)F)c2)n1 (centres undefined) | inactive: 0.792% | – |
| CCCOc1ccc(C(=O)N/N=C/c2c[nH]c3ccc(Br)cc23)cc1 | inactive: -4.86% | – |
| Cc1csc(NC(=O)CSc2nc3[nH]c(=O)cc(O)c3s2)n1 | inactive: -1.11% | – |
| COc1cc(NC(=O)CSc2nccc(C)n2)c(C)cc1[N+](=O)[O-] | inactive: 22.2% | – |
| Cc1cccc(NC(=O)C(C)Sc2nc3nc(C)cc(C)n3n2)c1 (centres undefined) | inactive: 10.5% | – |
| CN(CCOc1ccccc1)C(=O)c1ccc(OC2CCN(C(=O)C3CC3)CC2)cc1 | inactive: 13.8% | – |
| O=C(COC(=O)/C=C/c1cccc(C(F)(F)F)c1)NC(=O)NC1CCCC1 | inactive: 17.2% | – |
| Cc1ccc(N(CC(=O)NC2CCCC2)C(=O)CNC(=O)c2cccs2)cc1F | inactive: 2.56% | – |
| O=C(CNC(=O)c1ccccc1)NCCCSc1ccccc1 | inactive: -0.129% | – |
| O=C(NCc1ccco1)C1CCN(S(=O)(=O)c2cccc([N+](=O)[O-])c2)CC1 | inactive: 11.4% | – |
| O=C(CN1C(=O)NC2(CCCC2)C1=O)Nc1cccc(Cl)c1 | inactive: -13.3% | – |
